Experimental data published in PubChem BioAssay AID2546 (National Center for Advancing Translational Sciences (NCATS), 2010).
Among all 310,000 compounds or so, about 11,000 (3.5%) were called active. This list was built around the results that the source calls inconclusive (neither active nor inactive); the mix of calls is not that of the screen. The call rests on the fitted dose curve; in most records, active means well fitted inhibition curve with a large enough effect; inconclusive means small, poorly fitted or top-dose-only effect, or effect the other way; inactive means flat fitted curve, though single readings scatter. Potencies of inconclusive entries are left out as doubtful fits.

experiment: VP16 counterscreen qHTS for inhibitors of ROR gamma transcriptional activity; settings: Drosophila S2 Gal4-VP16 UAS-luciferase, luminescence, 20 h; activity, negative = inhibition: at 53.6 µM (top of the series);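 further: Gal4-VP16 expression switched on by copper sulfate through the metallothionein promoter; nearly all actives have a fitted effect of over 50% in size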
On the % scale 0 is the no-effect control and ±100 the full control effect; potency means the concentration at half of the fitted maximal effect; tags describe the fitted curve by direction and shape.

| Compound | Potency | activity, negative = inhibition |
| --- | --- | --- |
| O=C(N/N=C/c1ccccn1)c1cc([N+](=O)[O-])cc([N+](=O)[O-])c1 | active: 4.47 µM | – |
| CCCCC(=O)N/N=C/c1ccc(Sc2cccc3cccnc23)o1 | active: 11.2 µM | – |
| N=c1c2c(n(Cc3ccc(Br)cc3)c3c1CCC3)CCCC2 | inconclusive [inhibitor, single point] | – |
| COc1ccc(-c2nc3ccc(N4CCN(C)CC4)cc3c(=O)[nH]2)cc1 | – | inactive: -10.5% |
| O=C(CSc1nnnn1-c1ccc(Cl)cc1)NC(=O)Nc1ccc2c(c1)OCCO2 | inconclusive [inhibitor, single point] | – |
| CCn1c(=O)c(C(=O)Nc2ccc(C)cc2)c(O)c2ccccc21 | inconclusive [inhibitor, single point] | – |
| C[C@@H]1CC=C[C@@H]2[C@H]1C(=O)N(Cc1ccccc1)[C@H]2c1ccccc1Br | inconclusive [inhibitor, single point] | – |
| CCOC(=O)N1CCN(C(=O)CCCn2c(=S)[nH]c3ccc(Br)cc3c2=O)CC1 | inconclusive [inhibitor, single point] | – |
| CCOc1ccccc1CN1CCNC(=O)C1CC(=O)NC1CCCCC1 (stereo not given) | – | inactive: 0.65% |
| COc1ccc2c(c1)C1=NN(/C(C)=C/C(C)=O)C(c3ccc(F)cc3)C1CC2 (stereo not given) | inconclusive [activator, single point] | – |
| COc1cc2c(cc1OC)CN(CCC(=O)c1ccc(Br)cc1)CC2 | inconclusive [inhibitor, single point] | – |
| O=C1CS/C(=N/N=C/c2c[nH]c3ccccc23)N1 | – | inactive: -8.04% |
| N#CC(C(=O)NCc1ccco1)c1nc2ccccc2nc1N1CCOCC1 (stereo not given) | inconclusive [inhibitor, single point] | – |
| C/C(=N\NS(=O)(=O)c1ccccc1)c1ccc2c(c1)OCO2 | inconclusive [inhibitor, single point] | – |
| CCC/C(C)=N/NC(=O)c1ccccc1O | inconclusive [inhibitor, single point] | – |
| Cc1cccc(C)c1OCC(=O)Nc1ccc2c(c1)OCCO2 | active: 2.24 µM | – |
| Nc1nc2nc(-c3ccccc3)cc(=O)n2[nH]1 | – | inactive: -20.3% |
| Cc1ccccc1OCC(=O)N/N=C/c1ccc(Sc2nc3ccccc3s2)o1 | – | inactive: -4.82% |
| Cc1nc(C)n(CC(O)COc2ccc3cc(Br)ccc3c2)n1 (stereo not given) | inconclusive [inhibitor, single point] | – |
| COC(=O)/C(C#N)=C/c1c(-c2ccccc2)nc2n1CCS2 | – | inactive: 8.31% |
| Cn1ncc(Cl)c1C(=O)NCc1ccc(Cl)cc1 | inconclusive [inhibitor, partial curve, poor fit] | – |
| CN(C(=O)c1ccco1)c1nc(CC(=O)Nc2ccccc2)cs1 | inconclusive [activator, full curve, poor fit] | – |
| Cc1ccc(C(=O)Nc2ccc3nccnc3c2)cc1 | inconclusive [inhibitor, single point] | – |
| CC(C)COc1ccc(-c2nnc(-c3ccco3)o2)cc1 | inconclusive [inhibitor, single point] | – |
| COc1ccc(C2CC(O)(c3ccccc3)Oc3c(C)ccc(C)c32)cc1 (stereo not given) | active: 12.6 µM | – |

| Compound | Potency | activity, negative = inhibition |
| --- | --- | --- |
| Cc1cc(C(=O)N/N=C/c2cc(Br)ccc2OC(=O)c2ccc(Br)cc2)n[nH]1 | active: 7.08 µM | – |
| COc1ccccc1C(=O)OCC(=O)NC(=O)NCc1ccccc1 | inconclusive [inhibitor, single point] | – |
| COc1cccc(/C=N\NC(C)=O)c1OC/C=C/c1ccccc1 | active: 11.2 µM | – |
| Cc1ccc(C)c(-c2cc(C(=O)Nc3nccs3)c3ccccc3n2)c1 | inconclusive [inhibitor, single point] | – |
| O=C(NC12CC3CC(CC(C3)C1)C2)N1CCN(c2ccccc2)CC1 | – | inactive: -8.01% |
| CCc1ccccc1N1CN(Cc2ccco2)CNC1=S | inconclusive [inhibitor, single point] | – |
| Cc1ccc(-n2nnnc2SCn2nnc3ccccc3c2=O)c(C)c1 | active: 7.08 µM | – |
| COc1ccc(OC)c(NC=C2C(=O)OC(C)(C)OC2=O)c1 | – | inactive: -1.19% |
| COc1ccc(Nc2c3c(nc4c(-c5ccccc5)c(C)nn24)CCC3)cc1 | active: 3.55 µM | – |
| CCOC(=O)C1(C/C(C)=N/NC(N)=O)CC(C)OC1=O (stereo not given) | inconclusive [activator, single point] | – |
| S=C1NC2(CCCCCC2)N=C1c1ccccc1 | inconclusive [inhibitor, single point] | – |
| CN(C)CCCN(C(=O)c1ccc2ccccc2c1)c1nc2cc3c(cc2s1)OCO3 | – | inactive: -17.2% |
| OCCCNc1nccc(-c2cc(Nc3cccc(Cl)c3)ncn2)n1 | inconclusive [inhibitor, single point] | – |
| Cc1cccc(NC(=O)CSc2nnc(-c3cc(C)[nH]n3)n2N)c1 | inconclusive [inhibitor, single point] | – |
| O=[N+]([O-])c1cccc(-c2cc(C(F)(F)F)n3nc(-c4ccccc4)cc3n2)c1 | inconclusive [inhibitor, single point] | – |
| Clc1ccc2[nH]c3c(N4CCC5(CC4)OCCO5)ncnc3c2c1 | inconclusive [inhibitor, single point] | – |
| O=C(CCN1CCOCC1)N/N=C/c1cc([N+](=O)[O-])ccc1OC(F)F | – | inactive: -14% |
| Cc1[nH]cnc1CSCc1ccc(Cl)cc1 | inconclusive [inhibitor, single point] | – |
| COc1cccc(NC(=O)c2cc3ccccc3o/c2=N\O)c1 | active: 20 µM | – |
| Cc1cccnc1N(C(=O)Nc1ccccc1)C1=NCC(C)(C)S1 | inconclusive [inhibitor, single point] | – |
| C/C=C/Cn1c(N(C)Cc2ccccc2)nc2c1c(=O)[nH]c(=O)n2C | inconclusive [inhibitor, single point] | – |
| COc1cccc(NC(=O)CSc2nnc(-c3ccc(C)cc3)o2)c1 | active: 12.6 µM | – |
| Cn1cccc1CC(=O)NNC(=S)NC(=O)c1ccc(F)cc1 | inconclusive [inhibitor, single point] | – |
| COc1ccc(CCNC(=O)CN2C(=O)c3ccccc3S2(=O)=O)cc1 | – | inactive: 8.65% |
| O=C(NCCN1CCOCC1)C1CCC(=O)N1Cc1ccc(F)cc1 (stereo not given) | – | inactive: -4.36% |

| Compound | Potency | activity, negative = inhibition |
| --- | --- | --- |
| Cn1cc(/C=N\NC(=O)C2COc3ccccc3O2)c2ccccc21 (stereo not given) | inconclusive [inhibitor, single point] | – |
| CCOC(=O)c1c(C)[nH]c(=S)c(C#N)c1-c1ccccc1 | active: 17.8 µM | – |
| Oc1ccc2ccccc2c1CNc1cnc2ccccc2c1 | inconclusive [inhibitor, single point] | – |
| CCC(=O)c1ccc(N2CCN(S(=O)(=O)c3ccccc3)CC2)c(F)c1 | – | inactive: -10.6% |
| CCC1=NN(C(=O)CCc2ccccc2)C(O)(C(F)(F)F)C1 (stereo not given) | inconclusive [inhibitor, partial curve, poor fit] | – |
| COc1cc(S(=O)(=O)N2CCOCC2)ccc1N | – | inactive: 2.65% |
| COC(=O)c1cccc(NC(=S)NCc2ccc(F)cc2)c1 | inconclusive [inhibitor, partial curve] | – |
| Cc1ccc(CNc2nc(C)cs2)cc1 | – | inactive: -9.5% |
| COc1ccc(C=C2c3ccccc3C(=O)c3ccccc32)c(OC)c1 | – | inactive: -2.97% |
| O=C(c1ccc2c(=O)n(Cc3ccc(Cl)cc3)c(=S)[nH]c2c1)N1CCCC1 | inconclusive [inhibitor, single point] | – |
| O=C(Cc1ccccc1)Nc1ccc(N2CCN(Cc3ccccc3F)CC2)cc1 | inconclusive [inhibitor, single point] | – |
| N#Cc1cc(-c2ccccc2)oc1/N=C/c1ccccc1O | inconclusive [inhibitor, single point] | – |
| O=C1Nc2ccccc2C(=O)C1(Cl)Cc1ccccc1 (stereo not given) | inconclusive [inhibitor, single point] | – |
| COC(=O)c1ccc(NC(=O)CSc2nccn2CCc2ccccc2)cc1 | inconclusive [inhibitor, single point] | – |
| CCOC(=O)C1=C(c2ccccc2)NC(=S)NC1c1ccc(Cl)c([N+](=O)[O-])c1 (stereo not given) | inconclusive [inhibitor, single point] | – |
| CCN(CC)S(=O)(=O)c1ccc(-c2nnc(SCC(=O)N3c4ccccc4CC3C)o2)cc1 (stereo not given) | inconclusive [inhibitor, partial curve] | – |
| Cn1c(NC2CCCCC2)c(N=O)c(=O)n(C)c1=O | – | inactive: 3.29% [at 10 µM] |
| CC(=O)N1CCC2(CC1)C/C(=N\NC(=S)Nc1ccccc1C)c1cc(O)ccc1O2 | inconclusive [activator, single point] | – |
| CCOc1ccccc1CNS(=O)(=O)c1ccc(-c2cnc(C3CC3)o2)cc1 | inconclusive [inhibitor, single point] | – |
| COc1ccc(-n2c(C)nc3c(cnn3-c3ccc(C)cc3)c2=O)cc1 | – | inactive: 2.02% |
| COc1cc(NC(=O)CN2C(=O)COc3ccc(S(=O)(=O)N4CCOCC4)cc32)cc(OC)c1 | – | inactive: 1.51% |
| Cc1cccc(-n2c(C)cc(/C=N/NC(N)=S)c2C)c1 | active: 2.82 µM | – |
| Cc1ccc(-c2noc(C3CCCN(C(=O)c4ccc(C(C)(C)C)cc4)C3)n2)o1 (stereo not given) | inconclusive [inhibitor, single point] | – |
| Cc1ccc(C(=O)Nc2nccs2)s1 | – | inactive: -10.6% |
| COc1ccc(OC)c(C2CC(=O)N3CN(c4cccc(Cl)c4)CSC3=C2C#N)c1 (stereo not given) | inconclusive [inhibitor, single point] | – |
